Test results published in publication PMC10281526, “Polydom/SVEP1 binds to Tie1 and promotes migration of lymphatic endothelial cells” (The Journal of Cell Biology, 2023).
These are yes or no findings as the source states them, for the method shown. Some results given as binding are weak or reduced against the parent protein; the word gives no strength. For part of these data: Where a sequence is shown, tags or fusion partners need not be part of it. Values belong to the molecule of their own block, whether it stands above or below them.

Amino acid sequences for entries named in this document (tags omitted). A change or cut given only in a name is not applied to a line headed by its entry. Residues count along the entry.
UniProt P52799, residues 28-229: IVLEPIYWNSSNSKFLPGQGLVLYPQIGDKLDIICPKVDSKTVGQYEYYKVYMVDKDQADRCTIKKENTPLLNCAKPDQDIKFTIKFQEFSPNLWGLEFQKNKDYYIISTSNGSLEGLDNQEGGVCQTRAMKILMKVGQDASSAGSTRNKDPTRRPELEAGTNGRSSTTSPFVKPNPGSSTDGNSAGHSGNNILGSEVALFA
UniProt Q02763, residues 23-748: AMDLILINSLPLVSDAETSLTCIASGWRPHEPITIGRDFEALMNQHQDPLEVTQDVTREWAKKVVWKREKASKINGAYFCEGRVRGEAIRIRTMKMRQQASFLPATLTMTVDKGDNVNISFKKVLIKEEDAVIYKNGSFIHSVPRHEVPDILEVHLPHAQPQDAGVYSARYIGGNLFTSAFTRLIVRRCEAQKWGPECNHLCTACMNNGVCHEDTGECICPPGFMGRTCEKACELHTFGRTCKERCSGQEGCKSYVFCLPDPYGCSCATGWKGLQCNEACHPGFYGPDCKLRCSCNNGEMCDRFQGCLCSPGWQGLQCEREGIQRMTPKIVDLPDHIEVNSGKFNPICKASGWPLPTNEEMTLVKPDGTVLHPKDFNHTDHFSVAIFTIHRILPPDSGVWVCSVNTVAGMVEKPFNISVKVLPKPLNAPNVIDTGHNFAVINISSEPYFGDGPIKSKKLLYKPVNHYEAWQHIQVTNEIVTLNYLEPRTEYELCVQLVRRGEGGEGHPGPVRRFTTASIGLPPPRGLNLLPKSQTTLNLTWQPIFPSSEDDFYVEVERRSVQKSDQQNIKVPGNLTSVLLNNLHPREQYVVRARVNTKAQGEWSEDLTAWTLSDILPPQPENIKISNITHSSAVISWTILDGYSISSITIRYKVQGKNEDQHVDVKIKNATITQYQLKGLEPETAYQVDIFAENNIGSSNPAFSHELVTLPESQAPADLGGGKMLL
recombinant full-length mouse Polydom (A2AVA0, residues 18-3567): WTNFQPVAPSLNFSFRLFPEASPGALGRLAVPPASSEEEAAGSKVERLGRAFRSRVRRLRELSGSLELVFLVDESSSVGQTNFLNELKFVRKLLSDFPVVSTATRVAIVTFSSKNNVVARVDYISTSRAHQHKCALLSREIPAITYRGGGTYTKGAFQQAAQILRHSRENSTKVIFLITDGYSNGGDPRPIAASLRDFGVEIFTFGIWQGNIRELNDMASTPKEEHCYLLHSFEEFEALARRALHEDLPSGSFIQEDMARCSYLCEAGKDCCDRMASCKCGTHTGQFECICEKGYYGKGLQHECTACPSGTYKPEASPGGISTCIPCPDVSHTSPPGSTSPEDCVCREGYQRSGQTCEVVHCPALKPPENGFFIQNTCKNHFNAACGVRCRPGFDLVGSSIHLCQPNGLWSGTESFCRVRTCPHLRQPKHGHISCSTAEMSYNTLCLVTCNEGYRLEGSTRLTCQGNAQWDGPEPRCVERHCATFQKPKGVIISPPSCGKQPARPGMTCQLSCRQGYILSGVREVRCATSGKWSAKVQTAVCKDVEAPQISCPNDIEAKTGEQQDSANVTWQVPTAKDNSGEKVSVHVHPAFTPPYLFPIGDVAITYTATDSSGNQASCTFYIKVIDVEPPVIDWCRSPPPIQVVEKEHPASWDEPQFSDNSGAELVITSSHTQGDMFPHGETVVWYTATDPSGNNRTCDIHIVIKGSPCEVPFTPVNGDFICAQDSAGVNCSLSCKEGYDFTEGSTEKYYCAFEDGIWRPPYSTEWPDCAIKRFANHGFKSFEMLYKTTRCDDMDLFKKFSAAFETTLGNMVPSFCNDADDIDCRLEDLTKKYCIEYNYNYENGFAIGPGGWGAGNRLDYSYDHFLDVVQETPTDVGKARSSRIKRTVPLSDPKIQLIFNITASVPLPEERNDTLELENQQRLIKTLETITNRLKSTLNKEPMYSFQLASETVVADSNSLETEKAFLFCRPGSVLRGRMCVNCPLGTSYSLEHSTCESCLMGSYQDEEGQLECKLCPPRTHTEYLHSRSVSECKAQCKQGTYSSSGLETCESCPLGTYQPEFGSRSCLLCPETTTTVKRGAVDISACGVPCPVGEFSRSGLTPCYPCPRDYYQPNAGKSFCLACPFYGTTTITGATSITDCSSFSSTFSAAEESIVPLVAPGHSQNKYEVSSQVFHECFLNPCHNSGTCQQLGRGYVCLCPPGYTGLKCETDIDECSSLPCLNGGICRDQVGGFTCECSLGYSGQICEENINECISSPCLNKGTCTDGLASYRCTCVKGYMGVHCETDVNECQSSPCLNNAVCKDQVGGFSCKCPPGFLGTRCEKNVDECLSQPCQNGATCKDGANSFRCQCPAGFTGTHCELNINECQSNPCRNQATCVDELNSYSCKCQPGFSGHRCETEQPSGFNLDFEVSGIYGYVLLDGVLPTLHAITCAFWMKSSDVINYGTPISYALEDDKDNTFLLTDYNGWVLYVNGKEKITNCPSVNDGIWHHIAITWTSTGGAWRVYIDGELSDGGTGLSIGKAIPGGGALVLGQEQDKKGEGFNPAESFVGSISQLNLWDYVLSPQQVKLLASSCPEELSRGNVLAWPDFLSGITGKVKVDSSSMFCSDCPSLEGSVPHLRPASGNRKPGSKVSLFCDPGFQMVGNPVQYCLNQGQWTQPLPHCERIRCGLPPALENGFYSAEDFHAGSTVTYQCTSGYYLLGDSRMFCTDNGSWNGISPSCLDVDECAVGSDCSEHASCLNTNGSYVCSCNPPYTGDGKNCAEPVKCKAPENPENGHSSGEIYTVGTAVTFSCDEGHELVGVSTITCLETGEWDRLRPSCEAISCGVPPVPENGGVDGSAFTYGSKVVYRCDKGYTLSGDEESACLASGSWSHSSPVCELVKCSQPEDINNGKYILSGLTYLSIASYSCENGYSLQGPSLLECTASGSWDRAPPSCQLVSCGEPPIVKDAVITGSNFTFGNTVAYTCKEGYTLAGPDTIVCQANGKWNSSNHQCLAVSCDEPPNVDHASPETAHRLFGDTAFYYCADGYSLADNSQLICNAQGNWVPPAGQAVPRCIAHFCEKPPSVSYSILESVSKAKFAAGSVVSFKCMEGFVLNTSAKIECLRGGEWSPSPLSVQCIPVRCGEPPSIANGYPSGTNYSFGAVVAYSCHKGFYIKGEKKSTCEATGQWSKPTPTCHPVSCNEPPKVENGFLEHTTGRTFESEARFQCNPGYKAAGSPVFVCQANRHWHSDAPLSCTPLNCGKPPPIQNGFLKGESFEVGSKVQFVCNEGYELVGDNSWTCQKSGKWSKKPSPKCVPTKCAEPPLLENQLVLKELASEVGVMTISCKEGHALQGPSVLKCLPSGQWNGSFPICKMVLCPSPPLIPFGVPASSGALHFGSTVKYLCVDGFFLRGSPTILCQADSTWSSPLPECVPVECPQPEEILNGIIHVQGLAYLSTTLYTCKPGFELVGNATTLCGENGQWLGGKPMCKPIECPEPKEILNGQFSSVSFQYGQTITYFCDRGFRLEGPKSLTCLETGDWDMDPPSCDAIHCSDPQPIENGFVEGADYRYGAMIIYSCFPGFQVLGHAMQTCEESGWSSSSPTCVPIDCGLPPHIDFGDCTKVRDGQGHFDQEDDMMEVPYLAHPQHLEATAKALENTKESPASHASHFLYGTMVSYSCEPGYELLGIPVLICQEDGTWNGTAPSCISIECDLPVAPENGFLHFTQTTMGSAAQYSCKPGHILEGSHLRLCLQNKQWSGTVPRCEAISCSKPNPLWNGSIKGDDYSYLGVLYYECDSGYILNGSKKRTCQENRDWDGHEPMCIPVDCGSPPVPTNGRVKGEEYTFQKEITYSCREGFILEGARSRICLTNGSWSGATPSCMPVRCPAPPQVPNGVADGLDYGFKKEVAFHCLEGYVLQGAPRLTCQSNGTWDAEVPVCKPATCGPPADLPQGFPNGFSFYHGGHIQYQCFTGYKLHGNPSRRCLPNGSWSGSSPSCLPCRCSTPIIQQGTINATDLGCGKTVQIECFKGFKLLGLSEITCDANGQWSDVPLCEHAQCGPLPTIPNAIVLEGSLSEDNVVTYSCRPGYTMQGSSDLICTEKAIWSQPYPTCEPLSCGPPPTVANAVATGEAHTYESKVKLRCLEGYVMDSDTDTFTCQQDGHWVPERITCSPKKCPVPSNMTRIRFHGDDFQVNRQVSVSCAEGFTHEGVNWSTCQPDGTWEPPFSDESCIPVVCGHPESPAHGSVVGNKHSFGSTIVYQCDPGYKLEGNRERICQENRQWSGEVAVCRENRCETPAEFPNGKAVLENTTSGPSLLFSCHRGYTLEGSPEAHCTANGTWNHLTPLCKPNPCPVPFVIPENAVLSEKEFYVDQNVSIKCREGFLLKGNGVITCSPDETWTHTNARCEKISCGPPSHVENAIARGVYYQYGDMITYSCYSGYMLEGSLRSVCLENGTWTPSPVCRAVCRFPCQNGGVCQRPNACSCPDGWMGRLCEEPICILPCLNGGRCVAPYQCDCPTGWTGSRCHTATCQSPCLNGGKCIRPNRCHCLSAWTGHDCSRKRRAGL

Assays:
[1] = target: T1, extracellular region of human Podoplanin, FLAG-tagged Fc-fusion protein (human) (UniProt Q86YL7); assay: ELISA; solid-phase binding assay: EphrinB2, Podoplanin, Tie1, Tie2 or integrin α9β1 coated at 5 μg/ml on Maxisorp plates overnight at 4°C; full-length Polydom (5 μg/ml) in solution, 2 h at room temperature, TBS with 0.1% BSA and 0.02% Tween-20; bound Polydom detected with anti-Pol-N antibody; integrin α9β1 in the absence or presence of 1 mM MnCl2; both purified
T1 sequence: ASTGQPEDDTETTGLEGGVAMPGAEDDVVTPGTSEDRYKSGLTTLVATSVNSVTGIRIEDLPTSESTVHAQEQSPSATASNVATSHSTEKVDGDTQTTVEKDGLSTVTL

[2] = target: extracellular region of human EphrinB2, FLAG-tagged Fc-fusion protein (human) (UniProt P52799); assay: as above
[3] = target: recombinant Tie2 extracellular domain, Fc fusion protein (UniProt Q02763); assay: as above
[4] = target: T2, recombinant Tie1 extracellular domain, Fc fusion protein (UniProt P35590); assay: as above
T2 sequence: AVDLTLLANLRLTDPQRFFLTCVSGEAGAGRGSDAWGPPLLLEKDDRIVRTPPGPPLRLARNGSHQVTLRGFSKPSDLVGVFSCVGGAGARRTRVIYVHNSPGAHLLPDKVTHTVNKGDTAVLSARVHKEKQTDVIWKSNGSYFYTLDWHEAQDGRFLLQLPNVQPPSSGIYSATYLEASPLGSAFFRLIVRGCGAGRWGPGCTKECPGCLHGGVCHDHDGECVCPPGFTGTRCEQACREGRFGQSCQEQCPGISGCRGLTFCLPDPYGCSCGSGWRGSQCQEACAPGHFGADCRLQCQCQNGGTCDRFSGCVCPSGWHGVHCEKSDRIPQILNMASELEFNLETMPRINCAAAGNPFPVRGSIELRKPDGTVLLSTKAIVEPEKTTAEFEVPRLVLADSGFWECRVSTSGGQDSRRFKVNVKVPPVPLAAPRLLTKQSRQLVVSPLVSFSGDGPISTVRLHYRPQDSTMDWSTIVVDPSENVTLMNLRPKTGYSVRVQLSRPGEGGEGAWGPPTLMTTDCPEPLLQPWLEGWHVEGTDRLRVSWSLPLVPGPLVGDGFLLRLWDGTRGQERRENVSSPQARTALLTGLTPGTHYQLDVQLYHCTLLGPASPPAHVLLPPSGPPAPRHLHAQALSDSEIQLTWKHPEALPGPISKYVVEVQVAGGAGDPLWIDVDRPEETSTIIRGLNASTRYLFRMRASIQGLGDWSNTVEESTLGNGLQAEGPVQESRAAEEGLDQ

[5] = target: T3, recombinant full-length mouse Polydom (mouse, UniProt A2AVA0 18-3567); assay: ELISA; reverse solid-phase binding assay, titration: full-length Polydom coated (10 nM by the legend), serially diluted Tie1-Fc or Tie2-Fc in solution, detected with HRP anti-human IgG against the Fc tag; apparent dissociation constant; both purified
T3 construct: Polydom (SVEP1), mouse, full length; expression vector as in Sato-Nishiuchi et al., 2012; The construct is described in Sato-Nishiuchi et al., 2012; also called SVEP1; full-length Polydom

[6] = target: full-length Polydom E2567A mutant (mouse) (UniProt A2AVA0); assay: ELISA; reverse solid-phase binding assay, one concentration: Polydom, Polydom deletion mutants or GST-fused Polydom fragments coated at 2 μg/ml, Tie1-Fc (2 μg/ml) in solution, detected with HRP anti-human IgG against the Fc tag; both purified

binding [1]: no binding (tested: 5 μg/ml Polydom) | binding [2]: no binding (tested: 5 μg/ml Polydom) | binding [3]: no binding (tested: 5 μg/ml Polydom) | binding [4]: binds
Molecule: recombinant full-length mouse Polydom (from UniProt A2AVA0 18-3567)

binding [5]: no binding
Molecule: recombinant Tie2 extracellular domain, Fc fusion protein (from UniProt Q02763 23-748)

binding [6]: no binding
B1: recombinant Tie1 extracellular domain, Fc fusion protein (Fc fusion, UniProt P35590 22-759, looked up)
chain: T2 sequence
notes: Tie1, extracellular domain, expressed as Fc fusion protein; The Fc tag was detected with an anti-human IgG antibody; also called Tie1 with an Fc tag; source: bought: R&D Systems
